First the molecules themselves.
B1: tRNA (parent)
chain: CUCUCGGUAGCCAAGUUGGUUUAAGGCGCAAGACUUUAAUUUAUCACUACGAAAUCUUGAGAUCGGGCGUUCGACUCGCCCCCGGGAGAUUUUUUCCUCGAGCAA

Variants at the floor of the assay are shown more often than the library holds them.

The variants in this data set derive from B1. Kind of data set: nonsense suppression (GFP-seq) (ratio to wild type); higher = more function; SUP4oc tRNA, yeast GFP reporter sort-seq. Put shortly:
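Yeast were grown in raffinose/galactose medium with 80 mg/L adenine, each strain bearing a genome-integrated ochre-suppressor tRNA variant from a ~3% random-mutation library, a galactose-driven GFP ochre reporter, and RFP. After sorting into GFP/RFP bins, every bin was sequenced on an Illumina platform at phred ≥30. The GFPSEQ value, a measure of nonsense suppression, is the weighted bin median GFP/RFP relative to the unmutated parent tRNA, using each variant's estimated cell share per bin as the weight. Only variants with ≥100 reads and ≥30 cells were included.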
Turning to A23U C79A G85A, the nonsense suppression was ≤ 0.026.

On to C1A U35C, for which the nonsense suppression is ≤ 0.026.

Consider A60G A74G, for which the nonsense suppression worked out at 0.0684.

As for C29G U70A G86A, the nonsense suppression was ≤ 0.026.

Consider G65A A87C, for which the nonsense suppression is ≤ 0.026.

With A33G U58G G67A C81A, the nonsense suppression was ≤ 0.026.

A74C A87U: the nonsense suppression is ≤ 0.026.

Regarding G7U A13G U17A, the nonsense suppression was ≤ 0.026.

Consider A9C G59U, for which the nonsense suppression is ≤ 0.026.

Regarding U2G G6A G18U G19A C27G A31U U58G G84U A87U, the nonsense suppression is ≤ 0.026.

On to U20A U55A A87C, for which the nonsense suppression was ≤ 0.026.

Turning to G32A U35A G61C G78C, the nonsense suppression is ≤ 0.026.

On to C5A A13C A33U U55G C72U, for which the nonsense suppression is ≤ 0.026.

Turning to U58A A74U, the nonsense suppression was ≤ 0.026.

With G6A A23U U58G, the nonsense suppression was ≤ 0.026.

Consider U71C C77G G84C, for which the nonsense suppression was ≤ 0.026.

As to U2C U35G, the nonsense suppression is ≤ 0.026.

As to C80A G88C, the nonsense suppression was ≤ 0.026.

For C12U G28A, the nonsense suppression is 0.51.

As for A13C G18C G26A C27G A33C, the nonsense suppression was ≤ 0.026.

On to U2A G7C A30G, for which the nonsense suppression was ≤ 0.026.

U4C G18U A31C C77G: the nonsense suppression was ≤ 0.026.

As to G65C, the nonsense suppression is ≤ 0.026.

With A14U C72G G86A, the nonsense suppression was ≤ 0.026.

Turning to C12U C29U A54G C68A C75G, the nonsense suppression is ≤ 0.026.

U17C G19C: the nonsense suppression is ≤ 0.026.

Turning to A23U A33G G73C, the nonsense suppression was ≤ 0.026.

For G69U G78U, the nonsense suppression is ≤ 0.026.

For A24G U35A C75G, the nonsense suppression is ≤ 0.026.

Regarding U8A U57G A89U, the nonsense suppression is ≤ 0.026.

Regarding G25C U76A, the nonsense suppression was ≤ 0.026.

For the variant G19U G85C, the nonsense suppression was ≤ 0.026.

As for G6U G10U C75U, the nonsense suppression was ≤ 0.026.

C12A G32A G86C: the nonsense suppression is ≤ 0.026.

U71G C81G: the nonsense suppression is ≤ 0.026.

With C34U G67A, the nonsense suppression was ≤ 0.026.

In the case of U22A C29U C34U G61C, the nonsense suppression is ≤ 0.026.

Regarding G18A U63G G67U G73C, the nonsense suppression was ≤ 0.026.

Take G18C U70C C81G: the nonsense suppression was ≤ 0.026.

For C11U C12U, the nonsense suppression is ≤ 0.026.

For C29G U55A, the nonsense suppression was ≤ 0.026.

Regarding U22A C77U C79U, the nonsense suppression was ≤ 0.026.

For the variant A33G G61U C83G, the nonsense suppression is ≤ 0.026.

As to G10C G32U C82G, the nonsense suppression is ≤ 0.026.

On to U2C A23U C83A, for which the nonsense suppression was ≤ 0.026.

Take A14G G26C A31U: the nonsense suppression is ≤ 0.026.

In the case of U55G U71G, the nonsense suppression is ≤ 0.026.

Regarding C34A G73U, the nonsense suppression is ≤ 0.026.

Regarding G7C G85U, the nonsense suppression is ≤ 0.026.

Take U4C C12A A14U G25C: the nonsense suppression is ≤ 0.026.

Take C1G C12U A30G G67C C83A: the nonsense suppression was ≤ 0.026.

As to A13C A31U G59U, the nonsense suppression was ≤ 0.026.

As for C3U A13C U16A G59U C77U, the nonsense suppression was ≤ 0.026.

G84C G88U: the nonsense suppression was ≤ 0.026.

Regarding G10A A33U U70A, the nonsense suppression was ≤ 0.026.

For U2C C27G, the nonsense suppression is ≤ 0.026.

As to U55A A74C G88A, the nonsense suppression was ≤ 0.026.

Consider A14G A54U, for which the nonsense suppression was ≤ 0.026.

On to A62G G86U, for which the nonsense suppression was ≤ 0.026.

Regarding G10U G18U G78C, the nonsense suppression is ≤ 0.026.

In the case of U58G G85A, the nonsense suppression stood at 0.0573.

Take C5G A89U: the nonsense suppression is ≤ 0.026.

Take U17A A24G A31U G67C A87C: the nonsense suppression was ≤ 0.026.

Consider C1G G10C U22C, for which the nonsense suppression was ≤ 0.026.

Consider U4G G61A C75A, for which the nonsense suppression is 0.558.

Turning to G19U A24G U76G, the nonsense suppression is ≤ 0.026.

Regarding G28A C29U C56A U70C, the nonsense suppression was ≤ 0.026.

On to G28C U58A C82U, for which the nonsense suppression was ≤ 0.026.

As to A62G G84C, the nonsense suppression is ≤ 0.026.

With G10A A60G C82G, the nonsense suppression was ≤ 0.026.

Regarding U71G G78C, the nonsense suppression is ≤ 0.026.

With G10U A54C U63C U76C, the nonsense suppression was ≤ 0.026.

As to C11U U21A A30U, the nonsense suppression was ≤ 0.026.

Take C11G C12A U35G U55C U76A G84U: the nonsense suppression was ≤ 0.026.

For the variant C11U U21C U55A U63C C75G, the nonsense suppression is ≤ 0.026.

Turning to G61A A62U, the nonsense suppression is 0.311.

Regarding G18A U71C, the nonsense suppression was ≤ 0.026.

For the variant G32U U55G A62C, the nonsense suppression is ≤ 0.026.

A9U G69U U76C: the nonsense suppression is ≤ 0.026.

Take C5G C27U A31G U35G C68G: the nonsense suppression is ≤ 0.026.

As for U4C A9G A13G U76C, the nonsense suppression stood at 0.202.

Regarding U71C G73U, the nonsense suppression is ≤ 0.026.

On to U17A G84U, for which the nonsense suppression is ≤ 0.026.

Take C68U U71A: the nonsense suppression is ≤ 0.026.

On to C3G U58C G66C A89C, for which the nonsense suppression is ≤ 0.026.

Regarding A9U G15U U16G A31U C34U C75U C82A, the nonsense suppression is ≤ 0.026.

As to G66U G69C, the nonsense suppression is ≤ 0.026.

Take C56G G67U A87U: the nonsense suppression was ≤ 0.026.

On to C29G A54U U76G, for which the nonsense suppression was ≤ 0.026.

In the case of G7A A33G C80G, the nonsense suppression is ≤ 0.026.

With A31C A89U, the nonsense suppression is ≤ 0.026.

On to U20C G88U, for which the nonsense suppression is ≤ 0.026.

G32C A62G C80U: the nonsense suppression was ≤ 0.026.

Take C11U G66A: the nonsense suppression is ≤ 0.026.

For the variant G19U A74C, the nonsense suppression was ≤ 0.026.

With C5A C12U C34U U57C G67A, the nonsense suppression was ≤ 0.026.

For the variant A62C U63C G88A, the nonsense suppression is ≤ 0.026.

In the case of G6C G86U, the nonsense suppression was ≤ 0.026.

Regarding U8A G66A, the nonsense suppression was ≤ 0.026.

Consider C5A G18U U76C G86A, for which the nonsense suppression was ≤ 0.026.

On to C11A U21A G32U, for which the nonsense suppression was ≤ 0.026.

For U2G U21C G26U, the nonsense suppression is ≤ 0.026.

For the variant U20G A24C U76C C81A, the nonsense suppression was ≤ 0.026.

Turning to A33C A60G C64G, the nonsense suppression is ≤ 0.026.

Turning to U22G C29U G32A, the nonsense suppression was ≤ 0.026.

A24C G28C: the nonsense suppression came out at 0.201.

G66C G88U: the nonsense suppression was ≤ 0.026.

In the case of A30C A33G U57A G61C C82A, the nonsense suppression is ≤ 0.026.

With U16G U57A, the nonsense suppression is ≤ 0.026.

On to A9G C29U G61C G65A, for which the nonsense suppression was ≤ 0.026.

With U4G U8A G69U U76G, the nonsense suppression is ≤ 0.026.

Take C12A G28C A31C U70C G73A: the nonsense suppression was ≤ 0.026.

For A9G U55C, the nonsense suppression is 0.245.

A74G C79G A89U: the nonsense suppression was ≤ 0.026.

As to G59A C79G, the nonsense suppression was ≤ 0.026.

For the variant C3A A9G G25C, the nonsense suppression is ≤ 0.026.

Take C5G A60C A87C: the nonsense suppression was ≤ 0.026.

Take G25C A87G: the nonsense suppression is ≤ 0.026.

Turning to A14C U57A G66U U70C, the nonsense suppression is ≤ 0.026.

Regarding C1A G19A C64U, the nonsense suppression is ≤ 0.026.

Regarding U4A G78A, the nonsense suppression was ≤ 0.026.

With C3A A33C G66A, the nonsense suppression is ≤ 0.026.

On to A31C G66C, for which the nonsense suppression is ≤ 0.026.

As for G73C U76C G86U, the nonsense suppression is ≤ 0.026.

Turning to C5A C75U C79A, the nonsense suppression is ≤ 0.026.

For U2A A14C G59U G61C, the nonsense suppression is ≤ 0.026.

On to C5G C11A G28U, for which the nonsense suppression was ≤ 0.026.

Take C34G U70C: the nonsense suppression is ≤ 0.026.

G73C U76G: the nonsense suppression was ≤ 0.026.

As to C12U C34G G61U A87G, the nonsense suppression is ≤ 0.026.

For the variant U21G A74U G84A, the nonsense suppression was ≤ 0.026.

As for A24G A89G, the nonsense suppression is ≤ 0.026.

Take A62G G85A: the nonsense suppression is ≤ 0.026.

For C68A G73C, the nonsense suppression is ≤ 0.026.

Turning to C11A U76A C82A, the nonsense suppression was ≤ 0.026.

As for C29U U70A G84A A87U, the nonsense suppression is ≤ 0.026.

Regarding U16G U55G U76A, the nonsense suppression is ≤ 0.026.

With A14G C27G A60C G88A, the nonsense suppression was ≤ 0.026.

With A23G G66U, the nonsense suppression was ≤ 0.026.

On to U20C C34U, for which the nonsense suppression was ≤ 0.026.

With G15U U20G C27G A33G A54U, the nonsense suppression was ≤ 0.026.

As to G65C G66A C72U A74G C75G, the nonsense suppression is ≤ 0.026.

In the case of G6A G85C, the nonsense suppression was ≤ 0.026.

A33U G88A: the nonsense suppression is ≤ 0.026.

G7C A13C A14U U70A C83G: the nonsense suppression was ≤ 0.026.

With A23G G28C C64G G69A U70G, the nonsense suppression is ≤ 0.026.

In the case of G65U G67A, the nonsense suppression was ≤ 0.026.

U22G U55C G65C C80U: the nonsense suppression was ≤ 0.026.

Consider U63G G65A G66U, for which the nonsense suppression is ≤ 0.026.

With G28U A60C, the nonsense suppression stood at 0.669.

Consider G59C C82U, for which the nonsense suppression is ≤ 0.026.

For G66U C68U, the nonsense suppression was ≤ 0.026.

G7A G19U U71A: the nonsense suppression was ≤ 0.026.

Turning to C5A A62U G88U, the nonsense suppression is ≤ 0.026.

As for U16G A54U C68A G86C G88U, the nonsense suppression was ≤ 0.026.

Regarding U16A G18U A33G G66C, the nonsense suppression is ≤ 0.026.

As for C5A A9G, the nonsense suppression was ≤ 0.026.

Take U8C C12A G19U: the nonsense suppression is ≤ 0.026.

U21G C79A: the nonsense suppression is ≤ 0.026.

With C11U U16C, the nonsense suppression was ≤ 0.026.

With G7A G19U U58G, the nonsense suppression was ≤ 0.026.

As for U22C G59A, the nonsense suppression is ≤ 0.026.

For the variant G32A C81G, the nonsense suppression is ≤ 0.026.

As for A62G, the nonsense suppression was ≤ 0.026.

As to A14U U20A G32A A33U G61A, the nonsense suppression was ≤ 0.026.

Consider A13C C79G C80A, for which the nonsense suppression was ≤ 0.026.

Regarding C3A A33U U57A U70A C72U C82G, the nonsense suppression is ≤ 0.026.

The values are drawn from the RNAGym collection of RNA variant scans (doi:10.1101/gad.245936.114).
